PubChem BioAssay AID588855 (National Center for Advancing Translational Sciences (NCATS), 2011)
The whole screen tested about 410,000 compounds, of which about 5,000 (1.2%) were called active. The inconclusive results got no clear call from the source; some entries with a clear call stand among them for comparison. Calls follow the shape of the dose curve; as a rule, active = well fitted inhibition curve with a large enough effect; inconclusive = small, poorly fitted or top-dose-only effect; inactive = no such curve, though single readings can be large or run the other way. Where the call is inconclusive, the potency comes from a doubtful curve fit.

test: qHTS for Inhibitors of TGF-b; conditions: HepG2 CAGA-GFP TGF-b/SMAD3 reporter, GFP fluorescence, 18 h, TGF-beta stimulated, 500 pg/mL final; series mostly up to 46.1 µM; also: nearly all actives have a fitted effect of over 65% in size
Summary of the method: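 HEPG2 CAGA-GFP, 1000 cells/well; 2 h settle, 37 C; cpd via pin tool; TGF-b 500 pg/mL final; 18 h, 37 C; GFP imaging ex488/em500-530; %Activity normalised to -TGF-b and +DMSO controls; CRC fit, curve class.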
Potency is read from the fitted curve at half-maximal effect; tags tell the direction and shape of the fitted curve.

| Compound | Potency |
| --- | --- |
| COc1cccc(C2CC(c3ccc(C)cc3)=NN2C(=O)c2ccccc2F)c1OC (stereo not drawn) | inconclusive: 25.1 µM [inhibitor, single point] |
| CCc1cnc2c(c1SCC(=O)c1ccc(OC)cc1)c(=O)n(C)c(=O)n2C | inconclusive: 11.2 µM [inhibitor, single point] |
| Clc1ccc(NCn2cncn2)nc1 | inactive |
| CCCCN(CCCC)C(=O)C1CCN(S(=O)(=O)c2cccc3nsnc23)CC1 | inconclusive: 22.4 µM [inhibitor, single point] |
| Cc1ccc(Cl)cc1-n1ncc2c(N3CCCCCC3)ncnc21 | inconclusive: 10 µM [inhibitor, partial curve, poor fit] |
| CCCc1c(C(=O)NNc2cccc(Cl)c2)cnn1-c1ccccc1 | inconclusive: 14.1 µM [inhibitor, single point] |
| COc1ccc(NC(=O)C2Cc3c(-c4cccc(NC(C)=O)c4)ccnc3O2)cn1 (stereo not drawn) | inconclusive: 22.4 µM [inhibitor, single point] |
| O=S(=O)(NCc1ccc(Cl)cc1)c1ccc(-c2cnc(C3CC3)o2)cc1 | inconclusive: 25.1 µM [inhibitor, single point] |
| O=C1C=CC(=O)N1Cc1ccccc1 | inconclusive: 20 µM [inhibitor, single point] |
| Cc1c(-c2ccc(Cl)cc2)c(=O)oc2ccc(OC(=O)N3CCOCC3)cc12 | inconclusive: 12.6 µM [inhibitor, partial curve, poor fit] |
| CCc1ccc(S(=O)(=O)/N=C2\C=C(Nc3cccc(C(=O)O)c3)C(=O)c3ccccc32)cc1 | inconclusive: 22.4 µM [inhibitor, single point] |
| COCCN(C(=O)COC(=O)CCn1c(C)csc1=O)c1c(N)n(Cc2ccccc2)c(=O)[nH]c1=O | inactive |
| CCN(c1ccccc1)S(=O)(=O)c1ccc(OC)c(N=N/C(C(=O)Nc2ccccc2)=C(/C)O)c1 | inconclusive: 35.5 µM [inhibitor, single point] |
| CCOC(=O)c1c(NC(=O)CSc2nnc(-c3cccnc3)o2)sc(C(C)=O)c1C | inactive |
| CN(C1CCCCC1)S(=O)(=O)c1ccccc1 | inconclusive: 0.1 µM [inhibitor, full curve, poor fit] |
| Cc1cc(C)cc(N(CCC(=O)Nc2nnc(C)s2)S(=O)(=O)c2ccc(Cl)cc2)c1 | inactive |
| Cc1nn2c(NCCN(C)C)c3c(nc2c1-c1ccccc1)CCCC3 | active: 11.2 µM |
| CC(Sc1nc(N)c2c3c(sc2n1)CSC(C)(C)C3)C(=O)Nc1ccccc1 (stereo not drawn) | inconclusive: 22.4 µM [inhibitor, single point] |
| CC(C)(C)c1ccc(-c2nc(SCC(=O)Nc3ccc(Cl)cc3)[nH]c(=O)c2C#N)cc1 | inconclusive: 22.4 µM [inhibitor, single point] |
| CCC(C)(O)c1[nH]c2ccc(C(F)(F)F)cc2c1C (stereo not drawn) | inconclusive: 35.5 µM [inhibitor, single point] |
| COc1ccc(/C=C2\SC(=S)N(CC(=O)N3CCN(C)CC3)C2=O)cc1 | inactive |
| Cc1ccc(/C=C/c2ccc(=O)n(Cc3ccc(F)cc3)n2)cc1 | inconclusive: 14.1 µM [inhibitor, single point] |
| CCOC(=O)Cc1csc(NC(=O)NC2(C(F)(F)F)Oc3cc(Cl)c(Cl)cc3O2)n1 | inconclusive: 35.5 µM [inhibitor, single point] |

| Compound | Potency |
| --- | --- |
| CCC(C)(C)n1nnnc1C(C(C)C)N(Cc1ccco1)Cc1cc2cc3c(cc2[nH]c1=O)OCO3 (stereo not drawn) | inconclusive: 22.4 µM [inhibitor, single point] |
| C=CCNC(=O)c1n[nH]c2c1CC(C(C)(C)CC)CC2 (stereo not drawn) | inconclusive: 14.1 µM [inhibitor, single point] |
| COc1cccc(OC)c1C(=O)Nc1ccccc1C(=O)N1CCCC1 | inconclusive: 6.31 µM [inhibitor, single point] |
| CC(Sc1nccn1C)C(=O)Nc1ccc(C(N)=O)cc1 (stereo not drawn) | inactive |
| CCN1C(=O)/C(=C/C=C2\C=CN(CC)c3ccccc32)SC1=S | inactive |
| OCc1ncccc1O | inactive |
| COc1ccc(NC(=O)Cn2ncc3c2-c2ccccc2OC3)cc1Cl | inconclusive: 3.55 µM [inhibitor, full curve] |
| Cc1cccc(NC(=O)c2sc3nc(N4CCOCC4)c4c(c3c2N)CC(C)(C)OC4)c1 | inactive |
| COc1ccccc1C(=O)Nc1ccc(OCc2cc(=O)n3ccsc3n2)cc1 | inactive |
| COc1ccc2c(c1OC)OCC2C (stereo not drawn) | inconclusive: 0.794 µM [inhibitor, full curve, poor fit] |
| O=C(c1cc2ncccn2n1)N1CCc2c([nH]c3ccccc23)C1c1ccccc1F (stereo not drawn) | inconclusive: 15.8 µM [inhibitor, single point] |
| COc1cc(OC)c2c(-c3cccc(-c4ccc(OC)c(F)c4)c3)cc(=O)oc2c1 | inconclusive: 1.26 µM [inhibitor, full curve] |
| CCC(C)NC(=O)C1(O)c2ccccc2NC(=O)N1c1ccc(C)c(C)c1 (stereo not drawn) | inactive |
| COc1ccc(N2CCN(c3oc(-c4ccc(COc5cccc(C)c5)o4)nc3C#N)CC2)cc1 | inactive |
| COc1ccc(-n2c(C)cc(C(=O)Cn3nc(C(=O)O)c4ccccc4c3=O)c2C)cc1 | inactive |
| CCN(CC)S(=O)(=O)c1cc(C)ccc1NC(=S)Nc1cccnc1 | inconclusive: 11.2 µM [inhibitor, partial curve, poor fit] |
| COCC(CN1CCN(C2=NS(=O)(=O)c3ccccc32)CC1)OC(=O)c1ccccc1 (stereo not drawn) | inactive |
| CCn1c(SCC(=O)Nc2cccc(C)c2)nc2nc3c(cc2c1=O)COC(C)(C)C3 | inactive |
| CC(NC(=O)C1CC2CCCC(C1)C2=O)c1ccccc1 (stereo not drawn) | inconclusive: 14.1 µM [inhibitor, single point] |
| Cc1nn(C2CCCCC2)c(N)c1-c1ccccc1 | inconclusive: 35.5 µM [inhibitor, partial curve, poor fit] |
| Cc1ccc(NC(=O)CN(C)S(=O)(=O)c2ccc3[nH]c4c(c3c2)CCCC4)c(Cl)c1 | inconclusive: 35.5 µM [inhibitor, single point] |
| COc1ccc(CC(=O)NCCc2csc3nc(-c4ccccc4F)nn23)cc1 | inactive |
| COc1ccc(OC)c(COC(=O)c2cc([N+](=O)[O-])ccc2N2CCOCC2)c1 | inactive |

| Compound | Potency |
| --- | --- |
| CCCN(C(=O)CCc1nc(-c2ccc(OC)cc2)no1)c1ccccc1F | inconclusive: 11.2 µM [inhibitor, partial curve] |
| COc1cccc2cc(-c3nnc(Nc4c(F)cccc4F)s3)c(=O)oc12 | inactive |
| Cc1oc(-c2ccccc2F)nc1CS(=O)(=O)CC(=O)NCCc1ccc(Cl)cc1 | inconclusive: 3.16 µM [inhibitor, full curve] |
| COc1cc(-c2nc(Cn3nnc(C(=O)Nc4ccc(C)cc4C)c3C)c(C)o2)cc(OC)c1OC | inactive |
| CCOC(=O)c1sc(NC(=O)c2cc3nc(-c4ccccc4)cc(C(F)(F)F)n3n2)c(C(=O)OCC)c1C | inactive |
| CC(=O)Oc1ccc(C23c4ccccc4C2(OC(C)=O)c2cc(OC(C)=O)ccc23)cc1 (stereo not drawn) | inconclusive: 35.5 µM [inhibitor, single point] |
| O=C1NC2c3c(I)sc(I)c3C(=O)C2O1 (stereo not drawn) | inconclusive: 7.94 µM [inhibitor, partial curve, poor fit] |
| CCCc1cnc(N2CCN(C(=O)c3ccc(OC)cc3)CC2)nc1 | inconclusive: 3.16 µM [inhibitor, full curve] |
| Cc1nc(-c2ccc(F)cc2)c(CC(=O)N(C)CC(=O)Nc2ccc(F)cc2)s1 | inconclusive: 5.62 µM [inhibitor, partial curve, poor fit] |
| N#CC1=C(N)OC2=C(C(=O)CC(c3ccco3)C2)C1c1ccc(OCc2c(F)cccc2Cl)cc1 (stereo not drawn) | inconclusive: 35.5 µM [inhibitor, single point] |
| N#C/C(=C\C=C\c1ccccc1)C(=O)NCc1cccnc1 | inconclusive: 35.5 µM [inhibitor, single point] |
| COc1cccc(CNC(=O)CN(c2ccc(C(C)C)cc2)S(=O)(=O)c2c(C)noc2C)c1 | inconclusive: 10 µM [inhibitor, single point] |
| CCOC(=O)C1CCN(Cc2ccccc2C(F)(F)F)CC1 | inactive |
| CCOc1ccc(CCNC(=O)CCSCc2ccc(Cl)cc2)cc1OCC | inactive |
| Cn1c(=O)c2c(nc(CN3CCc4ccccc4C3)n2Cc2ccccc2)n(C)c1=O | inconclusive: 7.08 µM [inhibitor, partial curve, poor fit] |
| Oc1ccc(N=Nc2ccc3ccccc3c2)cc1 | inconclusive: 12.6 µM [inhibitor, partial curve] |
| N#Cc1nc(-c2ccccc2F)oc1NCc1cccc2c1OCO2 | inconclusive: 35.5 µM [inhibitor, single point] |
| COCCN(CCOC)Cc1cc(=O)oc2cc3c(cc12)CCC3 | inactive |
| Brc1cc2c(cc1CN1CCc3ccccc3C1)OCO2 | inconclusive: 0.282 µM [inhibitor, full curve, poor fit] |
| COC(C[C@@H]1O[C@H]1C(=O)[C@@H](C)OCc1ccccc1)OC | inconclusive: 35.5 µM [inhibitor, single point] |
| Cc1cccc(Cc2c(C)nc3nc(SCC(=O)NCc4ccccc4)nn3c2C)c1 | inconclusive: 35.5 µM [inhibitor, single point] |
| CCC(=O)N1CCc2cc(Br)cc(S(=O)(=O)N3CCCC(C(=O)Nc4cccc(F)c4)C3)c21 (stereo not drawn) | inconclusive: 7.94 µM [inhibitor, partial curve] |
